Experimental data reported in PubChem BioAssay AID1159614 (National Center for Advancing Translational Sciences (NCATS), 2016).
Among all 45,000 compounds or so, about 65 (0.1%) were called active. Calls come from the whole dose curve; as a rule, active = well fitted activation curve with a large enough effect; inconclusive = small, poorly fitted or top-dose-only effect; inactive = no such curve, though single readings can be large or run the other way. The list shows a part of the results.

These compounds were tested against Galactocerebrosidase (Homo sapiens) (UniProt P54803) (assay: A Novel Cell-Based Assay to Identify Small Molecules for B -Galactocerebrosidase). Settings: 145M-Twi-hGALC-G270D cells (Twitcher mouse brain line with human GALC G270D), HMU-beta-Gal fluorescence, 48 h; series mostly up to 57.5 µM; activation: at the top concentration.
Sequence of UniProt P54803 (P54803 whole entry, looked up): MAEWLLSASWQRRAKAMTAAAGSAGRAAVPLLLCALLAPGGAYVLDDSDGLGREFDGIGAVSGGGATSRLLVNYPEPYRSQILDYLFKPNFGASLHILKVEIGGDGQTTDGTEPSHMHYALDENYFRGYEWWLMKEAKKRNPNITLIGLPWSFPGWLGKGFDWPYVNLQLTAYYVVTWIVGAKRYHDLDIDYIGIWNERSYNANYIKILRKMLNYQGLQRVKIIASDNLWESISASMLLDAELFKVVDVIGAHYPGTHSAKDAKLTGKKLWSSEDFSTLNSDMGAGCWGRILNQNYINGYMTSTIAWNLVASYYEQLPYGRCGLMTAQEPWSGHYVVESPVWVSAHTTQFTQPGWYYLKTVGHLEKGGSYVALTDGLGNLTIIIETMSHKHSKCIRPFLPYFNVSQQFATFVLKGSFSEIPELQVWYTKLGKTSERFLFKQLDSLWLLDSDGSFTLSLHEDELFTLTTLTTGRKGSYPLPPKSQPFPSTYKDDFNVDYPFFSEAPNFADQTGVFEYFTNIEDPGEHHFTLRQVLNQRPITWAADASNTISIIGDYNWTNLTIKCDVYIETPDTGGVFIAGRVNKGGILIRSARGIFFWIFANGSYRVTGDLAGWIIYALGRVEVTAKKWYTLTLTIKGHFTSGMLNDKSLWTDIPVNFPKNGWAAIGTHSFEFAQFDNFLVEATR
Summary of the method: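 Fluorescence readout: HMU-β-gal cleavage by mutant GALC (0.1 mM final, citrate/phosphate pH 5.2 with 1 mg/mL taurocholate), stopped with carbonate/bicarbonate plus Triton X-100. Cells: murine Twitcher 145M-Twi expressing human G270D GALC; qHTS for activators.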
Note: 0% is about no effect; nearly all actives have a fitted effect of over 65% in size.

activation, inactive:
COc1ccc(N2CCN(C(=O)c3nn(C)c4c3CSc3ccccc3-4)CC2)cc1 -9.32%
Cc1cn([C@H]2C[C@H](N=[N+]=[N-])[C@@H](CO)O2)c(=O)[nH]c1=O -8.82%
CCCc1cc(=O)[nH]c(SCc2nc(-c3ccc(OC)cc3)no2)n1 12.2%
Cc1cc(C)cc(OCC(=O)NCC2(N3CCOCC3)CCCCC2)c1 -1.2%
O=C(Cn1c(SCCOc2ccccc2Cl)nc2ccccc21)N1CCCCC1 -33%
O=C(C1CCN(c2ncnc3c2nc2n3CCCCC2)CC1)N1CCN(c2ccccc2)CC1 4.99%
CCOC(=O)c1ccccc1NC(=O)c1sc2ncn(CC)c(=O)c2c1C -9.71%
N#Cc1ccccc1Cn1c(=O)n(-c2ccc(F)c(Cl)c2)c(=O)c2sccc21 1.81%
COc1ccc(CC(=O)NCCc2csc(-c3cccc(F)c3)n2)cc1OC -11%
Cc1ccc(C)c(NC(=O)Cn2c(=O)n(Cc3ccco3)c(=O)c3ccc(C(=O)NC4CCCC4)cc32)c1 -24.2%
CCOc1ccccc1Nc1sc(C(=O)c2ccc(Cl)cc2)c(N)c1C#N 16.4%
COc1ccc2c(c1)C(=O)N(CCc1ccc(S(=O)(=O)NC(=O)NC3CCCCC3)cc1)C(=O)C2(C)C -16.2%
O=C(c1ccc(CSc2nc3ccncc3n2Cc2ccccc2F)cc1)N1CCCCC1 -12%
CCOc1ccc(NC(=O)NCCCN2CCN(c3ccc(OC)cc3)CC2)cc1 -13.3%
CC(C)c1ccc(NC(=O)CNC(=O)Cn2ccc3ccccc3c2=O)cc1 0.0874%
CCc1ccc2c(c1)c(=O)c(C(=O)c1ccc(C)cc1)cn2CC(=O)Nc1ccc2c(c1)OCCO2 -10.8%
Cc1ccccc1NC(=O)Cn1c(=O)n(Cc2ccco2)c(=O)c2cccnc21 -21.7%
Cc1ccc(-c2cc(C(=O)NCCc3ccccc3)c3ccccc3n2)cc1C 11.4%
O=C(NCCc1ccccc1)c1cc(-c2ccccc2)nc2n[nH]c(-c3ccccc3)c12 -4.16%
O=C(NCc1ccc(F)cc1)c1cccc(N2CCCS2(=O)=O)c1 -14.7%
CN(C)c1ccc(/C=C(\C#N)c2nc3ccccc3c(=O)[nH]2)cc1 -31.5%
Cc1ccc(Cl)cc1NC(=O)C1CCCN(S(=O)(=O)c2c(C)noc2/C=C/N(C)C)C1 (stereo unspecified) -9.77%
COC(=O)c1c(NC(=O)CCCOc2ccccc2)sc2c1CCC(C)C2 (stereo unspecified) -12.5%
O=C(Nc1ccccc1C(=O)OCc1cc(=O)n2ccsc2n1)c1cccc(F)c1 -0.778%
Cc1cc(Nc2cccc(Cl)c2)nc2ccc(NC(=O)c3ccc(F)cc3Cl)cc12 1.49%
Cc1ccc2nc(/C(C#N)=C/c3ccc(-c4ccc(F)cc4F)o3)[nH]c2c1 -20.1%
Fc1ccc(C2=NC(c3cccc(C(F)(F)F)c3)=Nc3ccccc3N2)cc1 -12.7%
CCC(=O)N1CCc2cc(S(=O)(=O)CCC(=O)N(C)c3ccc(OC)cc3)ccc21 -12.8%
O=C(c1ccc(CS(=O)c2ccccc2Cl)o1)N1CCN(c2ccccc2F)CC1 (stereo unspecified) -8.54%
CN(C)CCN(Cc1ccc(Cl)cc1)c1ccccn1 -14.8%
COc1ccccc1-c1c(C)nn2c(C(F)(F)F)cc(-c3ccccc3)nc12 -11.7%
Cc1ccc(CN2CCC(CNC(=O)Nc3c(C)cccc3C)C2)cc1 (stereo unspecified) -0.853%
CSc1cccc(NC(=O)c2ccc3c(c2)c(C)c(C)n3Cc2ccc(F)cc2)c1 -15.5%
Cc1cc(C)c2c(CC(=O)Nc3nnc(CC(C)C)s3)coc2c1 -17%
CC(C)NS(=O)(=O)c1ccc(OCC(=O)N2CCN(c3ccccc3F)CC2)cc1 -14.8%
CCc1ccc(S(=O)(=O)c2cn(C)c3cc(N4CCN(CC)CC4)c(F)cc3c2=O)cc1 -14.7%
COc1ccc(CCCc2nnc(SCC(=O)Nc3ccc(C)c(C)c3)o2)cc1 -8.6%
CC(C)(C)c1ccc(OCC(=O)Nc2c(C(=O)c3ccc(F)cc3)oc3ccccc23)cc1 -14.8%
COc1cc(C(=O)NCCSc2c(-c3ccccc3)[nH]c3ccccc23)cc(OC)c1OC -3.65%
O=C(CCC1N=C2c3ccccc3N=C(SCc3cccc(Cl)c3)N2C1=O)NCc1cccs1 (stereo unspecified) -0.44%
CCC(=O)Nc1cccc(-c2cn3c(C)csc3n2)c1 -14.7%
COc1cccc(C(=O)N(Cc2cccc(Cl)c2)Cc2ccco2)c1 -14.7%
Cc1nn(C)c2c1c(-c1ccccc1)cc(=O)n2CC(=O)NC(C)(C)C -5.77%
CCC(C)n1c(=N)c(S(=O)(=O)c2ccccc2)cc2c(=O)n3ccccc3nc21 (stereo unspecified) -13%
Cc1ccc(NC(=O)Cn2c(=O)nc(-c3ccccc3F)c3cc(Cl)ccc32)c(Br)c1 -9.66%
NS(=O)(=O)Cc1noc2ccccc12 -18.5%
CCOC(=O)c1ccccc1NC(=O)CSc1ncc2c(n1)-c1ccccc1N(CC)S2(=O)=O -17.9%
CCOc1ccc(S(=O)(=O)N(CC(=O)NCCSCc2ccccc2)c2ccccc2)cc1 1.24%
CCOc1ccccc1NC(=O)N1CCN(Cc2cc(=O)n3nc(-c4ccc(C)cc4)sc3n2)CC1 -7.28%
COc1cc2nc(SCc3ccc(F)cc3)n3nc(CCn4c(C)nc5ccccc54)nc3c2cc1OC -16.4%
CCCSC1=NC2(CCN(C(=O)NC3CCCCC3)CC2)N=C1c1ccc(Cl)cc1 -6.22%
Cc1ccc(CN2CCCN(Cc3c(C)cc(C)cc3C)S2(=O)=O)cc1 -8.43%
Cc1cccc(CSc2nc(-c3cccc(C)c3)nc3c2Cc2c(CO)cnc(C)c2O3)c1 -9.18%
Cc1ccc(CNC(=O)CCS(=O)(=O)c2cc3c(cc2C)NC(=O)CO3)cc1 -0.677%
O=C(CSc1nc2c(oc3ccccc32)c(=O)n1Cc1ccco1)Nc1ccccc1 -12.6%
Cc1ccc(N2CCN(S(=O)(=O)c3c(C)[nH]c(=O)[nH]c3=O)CC2C)cc1 (stereo unspecified) -16%
Cc1nn(Cc2noc(C(=O)NC(C)c3ccccc3)n2)c(C)c1Br (stereo unspecified) -12.9%
COc1cc(Cl)c(C)cc1NC(=O)Cn1cc(S(=O)(=O)N2CCC(C)CC2)c2ccccc2c1=O -1.33%
CCCN(CCC)c1nn2c(=O)c(C(=O)NCc3cc(Br)ccc3OC)cnc2s1 -20.6%
CCOC(=O)c1cc(-c2ccccc2)n(CC(=O)Nc2ccc(CC)cc2)c1C -14.8%
CC(C)(C)C(=O)OCc1cc(=O)n2nc(C3CC3)sc2n1 -9.61%
COc1ccc(C)cc1NC(=O)COCc1cc(-c2ccc(F)cc2)on1 -5.75%
CC1(C)O[C@@H]2[C@@H](CO[C@@]3(COS(N)(=O)=O)OC(C)(C)O[C@@H]23)O1 -10.6%
Cc1cccc(S(=O)(=O)c2cn(C)c3cc(N4CCN(c5ccc(F)cc5)CC4)c(F)cc3c2=O)c1 -28.6%
COc1ccc(OC)c(CCNC(=O)CCn2c(=O)c3cccn3c3ccc(F)cc32)c1 -10%
CC[N+](CC)(CC(=O)Nc1c(C)cccc1C)Cc1ccccc1 -16.1%
CC(C)c1ccc(NC(=O)CSC2=Nc3ccccc3C3=NC(CCC(=O)NCc4ccco4)C(=O)N23)cc1 (stereo unspecified) 0.718%
COc1cc(NS(=O)(=O)c2ccc(N)cc2)nc(OC)n1 -1.71%
O=C(CSc1nc(=O)n(Cc2ccco2)c2c1CCC2)Nc1ccccc1C(F)(F)F 3.36%
Cc1ccc2c(=O)cc(C(=O)Nc3ccc(S(=O)(=O)N4CCCCCC4)cc3)oc2c1 0.106%
CCCCNC(=O)c1ccccc1NC(=O)CN(c1ccccc1)S(=O)(=O)N(C)C 1.4%
Cc1ccc(CN2CCSc3ccc(C(=O)Nc4ccc(C)cc4)cc32)cc1 -8.63%
CC(=O)N1CCCc2cc(S(=O)(=O)N3CCC(C(=O)NCc4ccccc4)CC3)ccc21 -20.4%
CCc1nnc(SCC(=O)N(CC)c2ccccc2)c2cc3oc(C)cc3n12 -7.73%
CCc1ccc(NC(=O)C2CCCN(S(=O)(=O)c3ccc(F)cc3)C2)cc1 (stereo unspecified) -30.6%
CCOC(=O)CNC(c1ccccc1)c1cc(Br)ccc1NC(=O)c1cccc(Cl)c1 (stereo unspecified) -9.68%
Cc1ccc(Cl)cc1N1CCN(C(=O)c2cc(S(=O)(=O)N3CCCC3)c[nH]2)CC1 10.7%
CCN(Cc1ccccc1)C(=O)Cn1c(=O)n(-c2ccc(Cl)cc2)c(=O)c2c(C)c(C)sc21 -14.2%
Cc1ccc(C)c(Cn2c(=O)n(-c3ccc(Cl)cc3)c(=O)c3c(C)c(C)sc32)c1 -10.1%
COc1ccc(CC(=O)NCC(c2ccc(Cl)cc2)N2CCOCC2)cc1 (stereo unspecified) -8.66%
Cc1ccc(Cn2c(=O)n(Cc3ccco3)c(=O)c3oc4ccccc4c32)cc1 -4.71%
Cc1ccc(C)c(NC(=O)CSc2nc3c([nH]c4ccccc43)c(=O)n2-c2ccc(F)cc2)c1 -14.8%
CCOc1ccc(OCC)c(NC(=O)c2cnc(SC)nc2-c2ccccc2)c1 -3.96%
Cc1ccc(Cc2cn3cc(-c4ccccc4)nc3s2)cc1 -0.836%
Cc1ccc(C)c(Oc2nc3c(c(=O)n(C)c(=O)n3C)n2Cc2ccccc2)c1 -8.74%
CN(C)S(=O)(=O)c1ccc2c(c1)nnn2CCNC(=O)Nc1ccc(Cl)cc1 -8.59%
Cc1ccc(S(=O)(=O)c2nnn3c2nc(NC2CCCCC2)c2sccc23)cc1 -1.66%
COc1cc(NC(=O)C2=CC(c3ccco3)=NS(=O)(=O)N2C)cc(OC)c1OC -12.1%
O=C(COc1ccc(F)cc1)Nc1ccccc1C(=O)OCc1cc(=O)n2ccsc2n1 -6.72%
CCCCn1c(=O)c2oc3ccccc3c2n(Cc2ccccc2C)c1=O 3.34%
CCOC(=O)c1[nH]c2c(c1Cc1ccccc1OC)C(=O)CC(c1ccccc1)C2 (stereo unspecified) -25.9%
CCCSCCCNC(=O)CN1C(=O)COc2ccc(S(=O)(=O)N3CCCC3)cc21 -8.47%
Cc1ccc(C)c(N2CCN(C(=O)c3ccc4c(=O)n(CCc5ccccc5)c(=O)[nH]c4c3)CC2)c1 -11.1%
COCCc1nn2c(=O)cc(COC(=O)c3ccccc3C)nc2s1 -22.2%
Cc1nc(-c2ccccc2)sc1CCNC(=O)C(=O)Nc1ccc(F)c(Cl)c1 -12%
NC(=O)c1ccccc1NC(=O)CN1c2ccccc2S(=O)(=O)c2ccccc21 -22.3%
